The structures appear in SMILES notation. Whole data set: some 110,000 compounds, median “z-score” near -0.1, cut for the highest 2% near 2. The list shows a part of the results. The source made the active and inactive calls.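 Rule for the calls: active = z-score in the third read window above 3 or below -3; inactive = the rest.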

The assay deals with Metabotropic glutamate receptor 8 (Rattus norvegicus) (UniProt P70579). The assay can be described thus: rat mGluR8 modulators via GIRK flux, primary screen, cell-based, thallium flux, HTS (AID 488969). To be noted: HEK293 rat mGluR8, GIRK (G protein-gated inwardly rectifying potassium channel) thallium flux, FluoZin2; at 10 µM; stronger effect = higher value; submaximal glutamate (EC20) added with thallium.
UniProt P70579, sequence (P70579 whole entry, looked up): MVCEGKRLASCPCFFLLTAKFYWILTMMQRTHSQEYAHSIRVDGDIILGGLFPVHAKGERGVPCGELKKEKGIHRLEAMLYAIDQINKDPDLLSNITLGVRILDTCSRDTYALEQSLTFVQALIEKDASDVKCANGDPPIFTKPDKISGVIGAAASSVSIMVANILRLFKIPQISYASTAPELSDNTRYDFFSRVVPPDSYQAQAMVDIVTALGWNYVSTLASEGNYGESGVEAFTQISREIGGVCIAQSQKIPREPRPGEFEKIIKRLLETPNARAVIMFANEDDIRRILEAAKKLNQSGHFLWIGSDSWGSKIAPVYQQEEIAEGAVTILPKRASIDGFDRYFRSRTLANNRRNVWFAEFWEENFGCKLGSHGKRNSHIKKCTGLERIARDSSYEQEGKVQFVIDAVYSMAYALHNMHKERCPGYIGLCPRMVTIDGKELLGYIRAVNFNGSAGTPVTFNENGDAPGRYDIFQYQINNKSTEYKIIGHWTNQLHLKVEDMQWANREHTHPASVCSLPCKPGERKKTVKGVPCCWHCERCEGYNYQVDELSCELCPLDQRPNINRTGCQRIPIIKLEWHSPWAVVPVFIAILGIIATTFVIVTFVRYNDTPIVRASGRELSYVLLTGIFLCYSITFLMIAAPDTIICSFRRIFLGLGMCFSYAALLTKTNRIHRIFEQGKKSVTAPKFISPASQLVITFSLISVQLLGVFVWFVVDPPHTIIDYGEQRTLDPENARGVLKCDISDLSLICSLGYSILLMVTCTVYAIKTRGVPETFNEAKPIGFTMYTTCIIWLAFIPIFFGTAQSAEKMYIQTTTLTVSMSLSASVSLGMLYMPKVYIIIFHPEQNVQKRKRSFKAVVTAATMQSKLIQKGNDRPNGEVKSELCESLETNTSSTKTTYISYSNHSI
`Cc1ccc(NC(=O)CCn2cnc3cc(C)c(C)cc32)cc1` had a z-score of -0.642. In the case of `COC1=CC(=O)OC12CCCCC2` it was 0.523; in that of `CN1CCN(C(=O)c2cc3nc(-c4ccc(F)cc4)cc(C(F)(F)F)n3n2)CC1`, -1.43. For `Cc1ccc(NC(=O)c2cc(S(=O)(=O)N3CCOCC3)c(Br)s2)cc1` the value was -0.348.

On to `CC(=O)N1CN(C2CC(C)(C)NC(C)(C)C2)Cc2c1sc1c2CCCC1`, for which the z-score was determined as 0.426. For `Cc1cccc(Nc2cnn(C34CC5CC(CC(CC(=O)O)(C5)C3)C4)c(=O)c2Cl)c1` the value was -0.467; for `CCOc1ccc(NC2CCN(C(C)=O)CC2)cc1`, -0.298; for `CCn1c(=O)c(NC(=O)c2ccccc2)c2n(c1=S)CCCCC2`, -0.376. On to `CCOc1ccc2cc(C#N)c(SCC(=O)OC)nc2c1`, for which the z-score is -0.0839. In the case of `CC1CCN(S(=O)(=O)N2CCC(C(=O)O)CC2)CC1`, the z-score is 0.0649. For the compound `CC(=O)Nc1ccccc1C(=O)N1CC2(C)CC1CC(C)(C)C2` (stereo not drawn), the z-score stood at 0.0101. In the case of `COCCn1c(SCC(=O)Nc2cc(C)nn2-c2ccccc2)nnc1-c1ccncc1` it was -0.231; in that of `NNC(=O)COc1ccc(F)cc1`, -0.244. In the case of `COc1cccc(C(=O)NC(=S)Nc2ccc3oc(=O)ccc3c2)c1` it was -0.0157; in that of `Cc1[nH]n(-c2ccccc2)c(=O)c1/C=N/N1C(=O)c2ccc3c4c(ccc(c24)C1=O)CC3`, 0.331. In turn, `CCCN1CCC(N2CCN(c3cccc(C(F)(F)F)c3)CC2)CC1` returned a z-score of -0.0165. Compound `O=C(O)CSc1nnc(-c2cc3ccccc3o2)n1-c1ccccc1` registered a z-score of 0.392. For `c1ccc(CSc2nnc3c(n2)OC(c2ccco2)Nc2ccccc2-3)cc1` (stereo not drawn) the value was -0.268; for `O=C(CN(Cc1ccccc1C(F)(F)F)C(=O)CNC(=O)c1ccco1)NC1CCCC1`, 0.253; for `COc1cc2c(cc1OC)CN(CC(=O)Nc1ccccc1C#N)CC2`, -0.37.

In the case of `CCCN(CC(=O)Nc1ccc(Cl)cc1Cl)C(=O)/C=C/c1cc(OC)ccc1OC`, the z-score is -0.408. In the case of `O=C(OC(C(=O)Nc1ccc(Cl)cc1C(F)(F)F)c1ccccc1)c1c(Cl)cccc1Cl` (stereo not drawn) it was -0.0451.

`COc1ccc(C2SCCN2C(=S)Nc2cccc(C(F)(F)F)c2)cc1` (stereo not drawn) registered a z-score of 0.549. `O=C(COC(=O)COc1ccc(Nc2ccccc2)cc1)NCc1ccco1` gave a z-score of -1.3. In the case of `Cn1cc(Cl)c(C(=O)Nc2nc3ccc(Cl)cc3s2)n1`, the z-score came to 0.119. In the case of `Cc1ccccc1NC(=O)C(=O)NC(C)CCc1ccccc1` (stereo not drawn) it was active: 7.37; in that of `COC(=O)c1cc(C(=O)OC)cc(N2C(=O)CC(NNC(=O)c3ccc(C)cc3)C2=O)c1` (stereo not drawn), 0.447; in that of `COc1ccc(C2c3sc(=O)[nH]c3SC3C4CCC(C4)C23)cc1` (stereo not drawn), 0.476. In the case of `COCCn1c(-c2ccccc2)nc2c(c(=O)c3ccccc3n2C)c1=O` it was -0.576.

Turning to `CC(C)Nc1ncnc2c1nnn2Cc1ccccc1`, the z-score was -0.084.

For `O=C(NCc1cccs1)c1cnc2ccccn2c1=O`, the z-score was -0.178. As to `COc1ccc(/C=C2\SC(=O)N(CCNC(=O)C3CC(=O)N(c4ccccc4)C3)C2=O)cc1` (stereo not drawn), the z-score was -0.349. In the case of `CCn1nc(NC(=O)c2ccccn2)c2cc3cccc(C)c3nc21` it was 0.101. For the compound `OC(COCc1ccc(Cl)cc1)CN1CCN(c2ccccn2)CC1` (stereo not drawn), the z-score is -0.147.

In turn, `COc1ccccc1OCC(=O)N/N=C1\CCc2ccccc21` registered a z-score of -0.32. Consider `O=S1(=O)C=C(SCCN2CCCCC2)c2ccccc21`, for which the z-score is 0.71.

`O=C(Nc1cnn(Cc2ccc(Cl)cc2)c1)C1CCCC1` registered a z-score of -0.0534. Regarding `CCCn1c(=O)c2c(C(=O)OCC)cc(-c3ccco3)nc2n(CCC)c1=O`, the z-score was -0.597. In the case of `CCN(c1ccc(NC(=O)COC(=O)CCC(=O)c2ccc(F)cc2)cc1)C(C)C` it was -0.471; in that of `COc1ccc(NC(=O)Cn2cc(C(=O)c3ccco3)c3ccccc32)cc1`, -0.14. Take `CCOCCCn1c(=N)c(C(=O)NCc2ccc3c(c2)OCO3)cc2c(=O)n3ccccc3nc21`: the z-score amounted to 0.357. `O=C1CCc2cc(S(=O)(=O)N3CCCC3C(=O)N3CCN(c4ccccc4F)CC3)ccc2N1` (stereo not drawn) showed a z-score of -0.194. Regarding `C=C(C)c1nc2cc(OC)c(OC)cc2c(=O)o1`, the z-score was -1.11. In turn, `COc1ccc(-c2[nH]ncc2/C=C(\C#N)C(=O)NC2CC2)cc1` showed a z-score of 0.216. In the case of `Cc1ccc(S(=O)(=O)N2CCC(C(=O)NCCCOC(C)C)CC2)cc1` it was 0.131; in that of `Cc1c(N(C)C)nc2ccccc2c1N`, 2.03. In the case of `Cc1ccc(C)c(NC(=O)CN(C)C(=O)[C@@H](NC(=O)c2ccc(C(C)(C)C)cc2)C(C)C)c1` it was -0.175. In turn, `CN(C)c1nc(OCCOC(=O)c2ccccc2)nc(N(C)C)n1` showed a z-score of 1.45. With `CCCCCOC(=O)Nc1ccc(S(=O)(=O)Nc2cccc([N+](=O)[O-])c2)cc1`, the z-score is -0.097. For the compound `CC(=O)N1CCc2cc(S(=O)(=O)CCC(=O)NCc3ccc4c(c3)OCO4)ccc21`, the z-score was -0.0913. For `CC(Sc1nc(-c2ccccc2)cc(C(F)(F)F)n1)C(=O)N1CCCCC1` (stereo not drawn) the value was -0.227. `C=CCC(NCc1ccccc1)c1ccc(C)o1` (stereo not drawn) showed a z-score of 0.143. In the case of `CC1CCCN(CC(=O)Nc2ccc(S(=O)(=O)N3CCCCC3)cc2)C1` (stereo not drawn) it was 1.13. In the case of `CCOC(=O)c1c(C)[nH]c(C(=O)COC(=O)CSCC(=O)N(CC)CC)c1C` it was -0.411; in that of `COc1cc(NC(=O)C2CCCO2)c(OC)cc1Cl` (stereo not drawn), -0.106; in that of `N#CCCSc1nc(N2CCOCC2)c2c(c1C#N)CCCC2`, -1.56. For `CC(=O)N1CCC(O)(c2cccc(C(F)(F)F)c2)CC1` the value was 0.105; for `CC(C)CC(NC(=O)c1ccco1)C(=O)Nc1ccc2c(c1)OCCO2` (stereo not drawn), -0.411. `Cc1c(NC(=O)COC(=O)c2cc(-c3cccc4ccccc34)nc3ccccc23)c(=O)n(-c2ccccc2)n1C` displayed a z-score of -0.0754. For `COc1cc(OC)cc(-c2nc3ccccc3s2)c1` the value was -0.129; for `Cc1ccc(NC(=O)/C(=C\C=C\c2ccccc2)NC(=O)c2ccccc2)cc1`, 0.255; for `COc1ccc(OCCSc2nnc(CCNC(=O)c3ccc(OC)cc3)n2C)cc1`, -0.0847. For `COc1ccccc1CNC(=O)C1CCCN(S(=O)(=O)c2cccc3cccnc23)C1` (stereo not drawn) the value was 0.0773; for `CCN(CC)c1ccc(/C=C/c2nc3ccccc3s2)cc1`, -0.178; for `COc1cc(/C=N/NC(=O)c2ccoc2C)cc(OC)c1OC`, -0.182. Consider `COc1cccc(C(=O)N(Cc2ccc3c(c2)OCO3)Cc2nc3ccccc3c(=O)[nH]2)c1`, for which the z-score is -0.152. In the case of `CC1CCN(S(=O)(=O)c2ccc(S(=O)(=O)NCC(=O)C(C)(C)C)cc2)CC1` it was 1.53; in that of `CCOc1ccccc1N(CC(=O)Nc1cc(OC)ccc1OC)S(C)(=O)=O`, 0.0169; in that of `O=S(=O)(Nc1nc2ccccc2nc1NCc1ccco1)c1cccs1`, -0.0891. For `CCCCN1C(=O)NC(NC(=O)c2ccco2)(C(F)(F)F)C1=O` (stereo not drawn) the value was -0.734; for `O=C(/C=C/c1cccs1)NC(=S)NNC(=O)Cc1cccs1`, 1.65. For `COc1ccc(NC(=O)CSc2nnc(-c3ccccn3)n2-c2ccccc2)cc1OC` the value was -0.14; for `O=C(O)CCC(=O)Nc1ccc(Br)cn1`, 0.224.

Compound `CCOC(=O)CC1C(=O)NCCN1C(=O)c1c(F)cccc1F` (stereo not drawn) registered a z-score of 0.00182.

Consider `COc1ccc(NC(=O)Cc2c(C)n(C(=O)c3ccc(Cl)cc3)c3ccc(OC)cc23)cc1`, for which the z-score was -0.319.

In turn, `CN(C)CCCNc1oc(-c2cccc(Cl)c2)nc1C#N` yielded a z-score of -0.825. For `CC(C)CC(=O)Nc1ccc(C(=O)NN2C(=O)c3ccccc3C2=O)cc1` the value was -0.193; for `CCOC(=O)CCNc1n[nH]c(=O)[nH]c1=O`, -0.0811; for `NC(=O)C1CCN(C(=O)CN2CCc3ccccc32)CC1`, -0.185. For `Cc1cnc(C(=O)Nc2ccc(-n3cnnn3)cc2)cn1` the value was -0.44; for `O=S(=O)(Nc1nccs1)c1ccc(Cl)cc1`, -0.192.

Take `CCNc1ccc(C(=O)OCC(=O)N(Cc2ccccc2)C(C)(C)C)cc1[N+](=O)[O-]`: the z-score is -0.16. In the case of `CC1CN(c2oc(Cc3cccc4ccccc34)nc2C#N)CC(C)O1` (stereo not drawn) it was -0.707.

Turning to `CN(CC(=O)Nc1ccc(Cl)c(C(F)(F)F)c1)C(=O)/C=C/c1ccco1`, the z-score was -0.13. `Cc1cc(NC(=O)CSc2nnnn2Cc2ccccc2)no1` had a z-score of 0.316.

Take `COc1ccccc1C(=O)Nc1nnc(SCC(=O)Nc2ccc3c(c2)oc2ccccc23)s1`: the z-score is -0.265. For `CCOC(=O)c1ccc(NC(=O)CSc2nc3c(c(=O)n2C)SC(C)C3)cc1` (stereo not drawn) the value was -0.66.

Compound `CCOC(=O)c1c(C)oc2c1c1c(c3ccccc32)OCN(Cc2cccnc2)C1` gave a z-score of -0.341. On to `CCN(CC)c1nc(SCC(=O)O)nc(N(CC)CC)n1`, for which the z-score worked out at 0.0323. The compound `CS(=O)(=O)NCc1ccc(C(=O)NC2CCCCC2)cc1` had a z-score of 0.203.

Compound `Cc1ccc2cc(C#N)c(N3CCN(C)CC3)nc2c1` registered a z-score of -0.337. In the case of `Cc1nccn1CCCN1C(=O)OC2(CCCCC2)C1(C)O` (stereo not drawn) it was -0.286; in that of `COc1ccc(N2CSC3=C(C#N)C(c4cc(OC)ccc4OC)CC(=O)N3C2)c(OC)c1` (stereo not drawn), -0.112. The compound `COc1cc(C)c(/C=C(\C#N)C(=O)Nc2ccc(C)cc2)cc1C(C)C` gave a z-score of -0.101.

`Cc1ccc(N2C(=O)NC(NC(=O)c3ccc(Cl)cc3)(C(F)(F)F)C2=O)cc1` (stereo not drawn) yielded a z-score of -0.201.

The compound `Cc1nc2c(C(=O)NCCc3ccccc3)c[nH]n2c(=O)c1Cl` yielded a z-score of -1.9. In the case of `Cc1nc2ccc(F)cc2cc1C(=O)Nc1ccc(Cl)c(Cl)c1` it was 0.146; in that of `O=[N+]([O-])c1ccc2c(c1)C(N1CCOCC1)/C(=C/COc1ccc(Cl)cc1Cl)O2` (stereo not drawn), 0.0252. In the case of `O=C(COc1cccc(Br)c1)NN=C1c2ccccc2-c2ccccc21` it was 0.184; in that of `Cc1nnc(SCC(=O)NCc2ccco2)n1Cc1ccccc1`, 1.71. `COc1cc(C)c(S(=O)(=O)Nc2ccccc2F)cc1C` had a z-score of 0.015. In the case of `Cc1ccc(C)c(S(=O)(=O)C(C#N)c2nc3ccccc3nc2N2CC(C)OC(C)C2)c1` (stereo not drawn) it was -0.827. For `Cc1cc(C)cc(COn2ccnc2)c1` the value was 1.24.

In turn, `O=C(c1ccco1)c1cn(CC(=O)N2CCCCC2)c2ccccc12` had a z-score of 0.173. For `CC(C)NC(=O)CC1Nc2c3ccccc3nc(=S)n2C1=O` (stereo not drawn) the value was -0.0355; for `CCOc1ccccc1-n1c(SCC(=O)NCc2ccco2)nnc1-c1ccncc1`, 0.345; for `O=C(NCCOc1nc(N2CCOCC2)nc(N2CCOCC2)n1)Nc1ccc(Cl)cc1`, -0.0682. For `O=C(NN1CCOCC1)c1cc(-c2ccccc2)nc2ccccc12` the value was -0.494.
